From the supplement of paper PMC11417369 come the findings set out here.

This is one part of the list.

The test deals with PfAP2-HC AP2 domain (GST-tagged). Briefly: gcPBM binding intensity (ln(normalized median fluorescence intensity)); higher = stronger DNA binding. In short, it runs like this:
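Plasmodium falciparum DNA-binding domains carrying a GST tag were expressed in E. coli and applied for 1 h, at about 25 μg on average, to an Agilent 4 × 180k array. The array held primer-extended double-stranded 36-bp intergenic genomic probes together with negative controls, and binding took place in 1× PBS with 1% milk, 0.2 mg/ml BSA, 0.5% salmon testes DNA and 0.03% Triton X-100. An Alexa488 anti-GST antibody detected bound protein, and the array was scanned at 488 nm. Binding intensity is taken as the highest Masliner-normalised natural-log median intensity across replicate spots of either probe orientation.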
Take “TTTTTTTTTTTTTATTGTACATGCAAAAAATTCCAC [XGTACX_site2371]”: the “gcPBM binding intensity (ln)” value was 9.4.

For “TTGGGTATTTTGTGCGCACACACATGCAAAAAGAAA [CACACA_site8299]”, the “gcPBM binding intensity (ln)” value was 10.2.

Take “GTAAGTATATATAAATGTACTTATGAGGTCAAATTA [XGTACX_site3392]”: the “gcPBM binding intensity (ln)” value was determined as 9.75.

With “ATATATATATATTGTAGTACTTATTAAATTATTTAT [XGTACX_site6235]”, the “gcPBM binding intensity (ln)” value was 9.62.

“TCTGTATTTCCTTATGCATGCATTAGCAAGATAATA [TGCATGCA_site483]”: the “gcPBM binding intensity (ln)” value amounted to 9.62.

Regarding “TATACATATTTTATAGCACACAAATAATAATATGTA [CACACA_site8129]”, the “gcPBM binding intensity (ln)” value is 9.63.

As for “CCAACTATATTATGAAGTACATATATATTATATATA [XGTACX_site5767]”, the “gcPBM binding intensity (ln)” value is 9.51.

Take “AAACCTACATAACATACACACGCATATATATAATTT [CACACA_site8923]”: the “gcPBM binding intensity (ln)” value came out at 10.1.

Turning to “ATATGGGTAATGAATTGTACTCTTTCTTGTTGTTCT [XGTACX_site4487]”, the “gcPBM binding intensity (ln)” value is 9.68.

As to “TGTAATAAATAGTACACACACACATATTTATATATC [CACACA_site6770]”, the “gcPBM binding intensity (ln)” value is 10.8.

As to “GTATAATTTTCGTATTCACACAAGAATATACTACAT [CACACA_site4877]”, the “gcPBM binding intensity (ln)” value came out at 9.77.

Take “AATATATGTATGTACGCATGTATGTATCTATGTATT [TGCATGCA_site389]”: the “gcPBM binding intensity (ln)” value amounted to 9.76.

As to “TTATAATTATATACATGTACATATAATACATATATA [XGTACX_site8904]”, the “gcPBM binding intensity (ln)” value worked out at 9.46.

As to “ATAATTATATATTTATGTACGCATAAATATTTATAT [XGTACX_site5765]”, the “gcPBM binding intensity (ln)” value stood at 9.59.

Regarding “ACCCAATTTTAAAATGAACACACATGTTTTTCTTAC [CACACA_site8246]”, the “gcPBM binding intensity (ln)” value was 10.

Take “TATTTATTGTGATACTACTATTATTTTATGATTAAA [CACACA_negctrl_site284]”: the “gcPBM binding intensity (ln)” value was found to be 9.49.

Take “TTATATTATTTTTAATGTACTTTTTATGAATACAAA [XGTACX_site689]”: the “gcPBM binding intensity (ln)” value was 9.54.

As to “TATATATAACTTTATTGTACAAAATATTATGTATTC [XGTACX_site981]”, the “gcPBM binding intensity (ln)” value turned out to be 9.66.

With TTGTTTTATTATTCGATGCACTACAGAAATATATTC, the “gcPBM binding intensity (ln)” value was 9.62.

“TATACAACTTTATGAAGTACAAAAAGTTCTATATAT [XGTACX_site3866]”: the “gcPBM binding intensity (ln)” value was found to be 9.51.

As for “AACTATATCATTTATTTTATTTTTTAAATACATTTA [CACACA_negctrl_site183]”, the “gcPBM binding intensity (ln)” value was 9.41.

“GTATATTTATAGCCTTTATTATATTTAATATTATTA [TGCATGCA_negctrl_site26]”: the “gcPBM binding intensity (ln)” value stood at 9.71.

Regarding “AGAAAAGTTTAATACAGTACATAAACAAAGTATAGG [XGTACX_site2386]”, the “gcPBM binding intensity (ln)” value was 9.79.

For the sequence “TATAATATTATATATAAACACACATACACATGTAAA [CACACA_site8631]”, the “gcPBM binding intensity (ln)” value turned out to be 9.94.

“GTTATATTTTTTTATACACACTGGAATATATAAATA [CACACA_site4282]”: the “gcPBM binding intensity (ln)” value was found to be 9.56.

With “TTTATTATTTTTAGGAGTACACAAAATAAAACAAAT [XGTACX_site8841]”, the “gcPBM binding intensity (ln)” value turned out to be 9.51.

With “GAAAATACGTTTAATCGTACATATATATAATATATA [XGTACX_site4243]”, the “gcPBM binding intensity (ln)” value came out at 9.6.

For “ACAAGTTTTTTTTTATCACACACAAAAAAAAAAATA [CACACA_site8377]”, the “gcPBM binding intensity (ln)” value stood at 9.85.

For “TATTTACCCTCATGTTGTACTTTTCATTCATTTTAT [XGTACX_site7794]”, the “gcPBM binding intensity (ln)” value is 10.

As for “ATTAATTATAATGTATGTACATAACTTTTTTATATT [XGTACX_site5784]”, the “gcPBM binding intensity (ln)” value was determined as 9.75.

As to “AAAATCATTCCAAAGACATGCATTTTGCAAATAAAA [TGCATGCA_site461]”, the “gcPBM binding intensity (ln)” value is 9.51.

Take “TATATTATATACCATTGTACATATAATATAGGTTCT [XGTACX_site7047]”: the “gcPBM binding intensity (ln)” value stood at 9.56.

In the case of “TCTATAAAGGAATATACACACATATATAAATATGTA [CACACA_site6332]”, the “gcPBM binding intensity (ln)” value was 9.71.

As for “AAAAACAGAAATGTAACACACAAAAATTCTATTTAT [CACACA_site4026]”, the “gcPBM binding intensity (ln)” value came out at 9.86.

For “TTTTGTTATAAATAATGTACATATTTATTTAAAATT [XGTACX_site6610]”, the “gcPBM binding intensity (ln)” value is 9.48.

In the case of “TATAAAAATGTGCACACACACACATATTTATATTTA [CACACA_site6826]”, the “gcPBM binding intensity (ln)” value was 10.5.

On to “AACCTTTATATGTAAAGTACAAAAAAGAGTAAAAAA [XGTACX_site5506]”, for which the “gcPBM binding intensity (ln)” value amounted to 9.61.

As for “TATATATTTGTAACGGGTACGTAGGTGTATATTCCA [XGTACX_site6028]”, the “gcPBM binding intensity (ln)” value stood at 9.71.

In the case of “AGCCACGTGGTATATACACACATAATCAAATAAAAT [CACACA_site9364]”, the “gcPBM binding intensity (ln)” value was determined as 10.2.

Take “GAAACGATTTAATACACACACGTATTATAGATATAT [CACACA_site6666]”: the “gcPBM binding intensity (ln)” value was 10.1.

Take “AATAAGCATATACAAACATGCATACATATAAATAAA [TGCATGCA_site338]”: the “gcPBM binding intensity (ln)” value is 9.8.

Regarding “TTTTTTTTTTTTTTGACACACATAATAAAATACAAA [CACACA_site3080]”, the “gcPBM binding intensity (ln)” value stood at 9.35.

As for “ATAAAACAACACACTTGTACTAATTTTTTTTTTTTT [XGTACX_site8377]”, the “gcPBM binding intensity (ln)” value amounted to 9.75.

For the sequence “TAATTTATAAGGTATAACAACAATTGCATCTATCAC [XGTACX_negctrl_site314]”, the “gcPBM binding intensity (ln)” value came out at 9.61.
